We go through 7 molecules from article PMC4605623.

In test [1] the target is T1, STMN1^42–149, yeast two-hybrid fusion (UniProt P16949).
T1 sequence: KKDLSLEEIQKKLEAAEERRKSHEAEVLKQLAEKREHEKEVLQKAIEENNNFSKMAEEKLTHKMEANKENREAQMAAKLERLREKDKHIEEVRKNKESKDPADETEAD
Description: two-hybrid; … Two-Hybrid System 3, constructs co-transformed into AH109 S. cerevisiae, growth on selective media and reporter gene activation; each cDNA in either pGBKT7 or pGADT7; at least three times in triplicate. (Reporter assays use an easily measured gene product as a stand-in for the process of interest.)

In test [2] the target is T2, STMN1^1–41, yeast two-hybrid fusion (UniProt P16949).
T2 sequence: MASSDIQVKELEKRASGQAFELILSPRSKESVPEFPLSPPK
The description is as above.

Test [3] deals with T3, full-length STMN1, yeast two-hybrid fusion (UniProt P16949).
T3 sequence: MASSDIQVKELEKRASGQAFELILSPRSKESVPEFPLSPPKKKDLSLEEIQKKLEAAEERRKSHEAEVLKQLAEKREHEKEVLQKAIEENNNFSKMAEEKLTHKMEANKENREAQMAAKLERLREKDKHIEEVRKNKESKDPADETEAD
The description is as above.

The target of test [4] is T4, full-length STMN2, yeast two-hybrid fusion (UniProt Q93045).
T4 sequence: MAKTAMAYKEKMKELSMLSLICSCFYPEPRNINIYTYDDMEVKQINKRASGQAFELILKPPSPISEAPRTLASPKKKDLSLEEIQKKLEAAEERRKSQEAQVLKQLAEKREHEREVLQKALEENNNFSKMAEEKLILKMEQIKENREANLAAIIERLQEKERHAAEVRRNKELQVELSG
The test is described as above.

In another test the target is T5, GST-STMN1 fusion protein (UniProt P16949).
T5 sequence: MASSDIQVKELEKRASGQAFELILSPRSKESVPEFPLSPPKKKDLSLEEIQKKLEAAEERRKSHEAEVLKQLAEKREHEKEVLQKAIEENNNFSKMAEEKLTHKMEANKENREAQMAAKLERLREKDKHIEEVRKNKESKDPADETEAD
Description: pull-down; GST-STMN1 from E. coli immobilized on sepharose beads, incubated with lysates of transfected HEK293T cells 16 h at 4°C; washed three times (Tris, 150 mM NaCl, 1 mM EDTA); immunoblot with anti-GFP; only the target purified. Background: Immunoblotting shows a protein as a band on a membrane.

These are yes or no findings as the source states them, for the method shown. For some of these results: In cells and extracts the contact can be indirect. Some binding calls cover weakened binding; strength is not graded here. Where a sequence is shown, tags or fusion partners need not be part of it.

B1: full-length FANCC, yeast two-hybrid fusion (protein, UniProt Q00597 1-558)
chain: MAQDSVDLSCDYQFWMQKLSVWDQASTLETQQDTCLHVAQFQEFLRKMYEALKEMDSNTVIERFPTIGQLLAKACWNPFILAYDESQKILIWCLCCLINKEPQNSGQSKLNSWIQGVLSHILSALRFDKEVALFTQGLGYAPIDYYPGLLKNMVLSLASELRENHLNGFNTQRRMAPERVASLSRVCVPLITLTDVDPLVEALLICHGREPQEILQPEFFEAVNEAILLKKISLPMSAVVCLWLRHLPSLEKAMLHLFEKLISSERNCLRRIECFIKDSSLPQAACHPAIFRVVDEMFRCALLETDGALEIIATIQVFTQCFVEALEKASKQLRFALKTYFPYTSPSLAMVLLQDPQDIPRGHWLQTLKHISELLREAVEDQTHGSCGGPFESWFLFIHFGGWAEMVAEQLLMSAAEPPTALLWLLAFYYGPRDGRQQRAQTMVQVKAVLGHLLAMSRSSSLSAQDLQTVAGQGTDTDLRAPAQQLIRHLLLNFLLWAPGGHTIAWDVITLMAHTAEITHEIIGFLDQTLYRWNRLGIESPRSEKLARELLKELRTQV
As to B1, the binding entry in test [1] was “no binding”; in test [2] it was “no binding”; in test [3], “binds”; in test [4], “binds”.

B2: EGFP-FANCC (GFP-tagged full length FANCC) (protein, UniProt Q00597 1-558)
chain: MAQDSVDLSCDYQFWMQKLSVWDQASTLETQQDTCLHVAQFQEFLRKMYEALKEMDSNTVIERFPTIGQLLAKACWNPFILAYDESQKILIWCLCCLINKEPQNSGQSKLNSWIQGVLSHILSALRFDKEVALFTQGLGYAPIDYYPGLLKNMVLSLASELRENHLNGFNTQRRMAPERVASLSRVCVPLITLTDVDPLVEALLICHGREPQEILQPEFFEAVNEAILLKKISLPMSAVVCLWLRHLPSLEKAMLHLFEKLISSERNCLRRIECFIKDSSLPQAACHPAIFRVVDEMFRCALLETDGALEIIATIQVFTQCFVEALEKASKQLRFALKTYFPYTSPSLAMVLLQDPQDIPRGHWLQTLKHISELLREAVEDQTHGSCGGPFESWFLFIHFGGWAEMVAEQLLMSAAEPPTALLWLLAFYYGPRDGRQQRAQTMVQVKAVLGHLLAMSRSSSLSAQDLQTVAGQGTDTDLRAPAQQLIRHLLLNFLLWAPGGHTIAWDVITLMAHTAEITHEIIGFLDQTLYRWNRLGIESPRSEKLARELLKELRTQV
As for B2, in the test with GST-STMN1 fusion protein, the binding result is “binds”.

B3: EGFP-FANCC^L554P (full-length FANCC harboring the L554P mutation) (protein, UniProt Q00597 1-558)
chain: MAQDSVDLSCDYQFWMQKLSVWDQASTLETQQDTCLHVAQFQEFLRKMYEALKEMDSNTVIERFPTIGQLLAKACWNPFILAYDESQKILIWCLCCLINKEPQNSGQSKLNSWIQGVLSHILSALRFDKEVALFTQGLGYAPIDYYPGLLKNMVLSLASELRENHLNGFNTQRRMAPERVASLSRVCVPLITLTDVDPLVEALLICHGREPQEILQPEFFEAVNEAILLKKISLPMSAVVCLWLRHLPSLEKAMLHLFEKLISSERNCLRRIECFIKDSSLPQAACHPAIFRVVDEMFRCALLETDGALEIIATIQVFTQCFVEALEKASKQLRFALKTYFPYTSPSLAMVLLQDPQDIPRGHWLQTLKHISELLREAVEDQTHGSCGGPFESWFLFIHFGGWAEMVAEQLLMSAAEPPTALLWLLAFYYGPRDGRQQRAQTMVQVKAVLGHLLAMSRSSSLSAQDLQTVAGQGTDTDLRAPAQQLIRHLLLNFLLWAPGGHTIAWDVITLMAHTAEITHEIIGFLDQTLYRWNRLGIESPRSEKLARELLKEPRTQV
Take B3: the binding entry in the test with GST-STMN1 fusion protein was “no binding”.

B4: EGFP-FANCC^55–558 (truncated FANCC mimicking mutations in exon 1) (domain or fragment, UniProt Q00597 55-558)
chain: MDSNTVIERFPTIGQLLAKACWNPFILAYDESQKILIWCLCCLINKEPQNSGQSKLNSWIQGVLSHILSALRFDKEVALFTQGLGYAPIDYYPGLLKNMVLSLASELRENHLNGFNTQRRMAPERVASLSRVCVPLITLTDVDPLVEALLICHGREPQEILQPEFFEAVNEAILLKKISLPMSAVVCLWLRHLPSLEKAMLHLFEKLISSERNCLRRIECFIKDSSLPQAACHPAIFRVVDEMFRCALLETDGALEIIATIQVFTQCFVEALEKASKQLRFALKTYFPYTSPSLAMVLLQDPQDIPRGHWLQTLKHISELLREAVEDQTHGSCGGPFESWFLFIHFGGWAEMVAEQLLMSAAEPPTALLWLLAFYYGPRDGRQQRAQTMVQVKAVLGHLLAMSRSSSLSAQDLQTVAGQGTDTDLRAPAQQLIRHLLLNFLLWAPGGHTIAWDVITLMAHTAEITHEIIGFLDQTLYRWNRLGIESPRSEKLARELLKELRTQV
Consider B4, for which the binding result with GST-STMN1 fusion protein is given as “no binding”.

B5: C-terminus of FANCC (FANCC^307–558), yeast two-hybrid fusion (domain or fragment, UniProt Q00597 307-558)
chain: GALEIIATIQVFTQCFVEALEKASKQLRFALKTYFPYTSPSLAMVLLQDPQDIPRGHWLQTLKHISELLREAVEDQTHGSCGGPFESWFLFIHFGGWAEMVAEQLLMSAAEPPTALLWLLAFYYGPRDGRQQRAQTMVQVKAVLGHLLAMSRSSSLSAQDLQTVAGQGTDTDLRAPAQQLIRHLLLNFLLWAPGGHTIAWDVITLMAHTAEITHEIIGFLDQTLYRWNRLGIESPRSEKLARELLKELRTQV
For B5, the binding entry in test [1] is on record as “no binding”; in test [2] it was “no binding”; in test [3], “binds”; in test [4], “binds”.

B6: FANCC C-terminus construct harboring the L554P mutation (FANCC^307-558-L554P), yeast two-hybrid fusion (domain or fragment, UniProt Q00597 307-558)
chain: GALEIIATIQVFTQCFVEALEKASKQLRFALKTYFPYTSPSLAMVLLQDPQDIPRGHWLQTLKHISELLREAVEDQTHGSCGGPFESWFLFIHFGGWAEMVAEQLLMSAAEPPTALLWLLAFYYGPRDGRQQRAQTMVQVKAVLGHLLAMSRSSSLSAQDLQTVAGQGTDTDLRAPAQQLIRHLLLNFLLWAPGGHTIAWDVITLMAHTAEITHEIIGFLDQTLYRWNRLGIESPRSEKLARELLKEPRTQV
In the case of B6, the binding result in test [1] is “no binding”; in test [2], “no binding”; in test [3] it was “no binding”; in test [4], “binds”.

B7: N-terminus of FANCC (FANCC^1–306), yeast two-hybrid fusion (domain or fragment, UniProt Q00597 1-306)
chain: MAQDSVDLSCDYQFWMQKLSVWDQASTLETQQDTCLHVAQFQEFLRKMYEALKEMDSNTVIERFPTIGQLLAKACWNPFILAYDESQKILIWCLCCLINKEPQNSGQSKLNSWIQGVLSHILSALRFDKEVALFTQGLGYAPIDYYPGLLKNMVLSLASELRENHLNGFNTQRRMAPERVASLSRVCVPLITLTDVDPLVEALLICHGREPQEILQPEFFEAVNEAILLKKISLPMSAVVCLWLRHLPSLEKAMLHLFEKLISSERNCLRRIECFIKDSSLPQAACHPAIFRVVDEMFRCALLETD
As to B7, the binding result was “no binding” in test [1], “no binding” in test [2], “binds” in test [3] and “binds” in test [4].
